For 80 compounds, growth results are on record in the supplement of paper PMC10986608.

Some of the results follow. Most values come without repeats; read them as rough.

This experiment relates to Candida albicans DPL-15. Briefly: growth (OD600) after compound treatment (apparently relative to screen median) (relative growth (fraction; screen median 1.02)); DPL-15 is a caspofungin-resistant clinical isolate; higher = more fungal growth (less antifungal activity). The following applies: 25 µM; RPMI 1640; 48 h; 30 °C.
For `CC(C)C(=O)Cc1cc(O)cc(O)c1C(=O)N1Cc2ccccc2C1`, the growth turned out to be 0.985. Take `COc1ccc(N2C(=O)c3[nH]nc(CC(C)C)c3C2c2ccccc2Cl)cn1` (stereo not given): the growth was determined as 0.941. In the case of `COC(=O)C1=C(C)N(Cc2cccc(C(F)(F)F)c2)C(NCC2CCCCC2)=NC1c1ccc(Cl)cc1` (stereo not given), the growth was 0.883. The result for `CS(=O)(=O)Oc1c(CC23COCCC2=Nc2ccccc23)occc1=O` (stereo not given) reads 1.25; that for `O=C1NC(c2ccccc2)C2=C1NCCN=C2c1ccccc1` (stereo not given), 1.07; that for `C[C@@H]1/C=C\CC(=O)OCCCCCC(=O)N[C@@H]1c1cccc(Br)c1`, 1.11. Turning to `COC(=O)C/C=C/[C@H](C)[C@@H](NC(=O)[C@@H](Cc1ccccc1)NC(=O)OC(C)(C)C)c1cccc(Br)c1`, the growth was 1.09. With `CC(C)Cc1n[nH]c2c1C(c1cccc(C(F)(F)F)c1)N(c1ccc(C(C)(C)C)cc1)C2=O` (stereo not given), the growth is 0.936. Turning to `Nc1ccccc1C(=O)/C=C/c1ccc2c(c1)OCO2`, the growth came to 0.674.

`COC(=O)C1=C(C)N(Cc2ccccc2)C(=O)N[C@H]1c1ccco1`: the growth is 1.12. For the compound `COc1cc([C@H]2[C@H](C(=O)NCc3ccccc3)[C@@H](C(=O)NCc3ccccc3)[C@@H]2c2cc(OC)c(OC)c(OC)c2)cc(OC)c1OC`, the growth amounted to 1.07. Take `COc1cc(O)c2c(c1)O[C@H](c1ccccc1)CC2=O`: the growth turned out to be 0.981. On to `COC[C@@H](O)[C@H]1OCc2cccc(OC)c2[C@@H]1/C=C/c1ccccc1`, for which the growth amounted to 0.917. Turning to `COC(=O)N[C@@H](c1ccccc1)C(C(=O)OC)C(=O)OC`, the growth was 0.942. For `C=CCc1c(O)cc(O)c2c1O[C@H](c1ccc(O)cc1)CC2=O`, the growth came out at 1.03.

On to `CCN(CC)CCCC(C)Nc1c2cccc(OC)c2nc2c(C(=O)Nc3ccc(CCN4CCc5cc(OC)c(OC)cc5C4)cc3)cccc12` (stereo not given), for which the growth is 0.985. Turning to `Fc1cc(F)c2c3c([nH]c2c1)CCCC3`, the growth was determined as 1.15.

`CO[C@@H]1CCN(C(=O)c2c(O)cc(O)cc2Nc2c(C)nn(C)c2C)C1`: the growth is 1.04. For `Cc1c([C@]23CCN(C(=O)c4ccc(C(F)(F)F)cc4)[C@H]2Nc2ccccc23)[nH]c2ccccc12` the value was 1.11; for `C[C@H]1Cc2c(COc3ccccc3)nc3c(c2CO1)CN(C(=O)c1cc(I)ccc1F)CC3`, 1.04; for `O=C1NC[C@H](c2ccccc2)N1`, 1.05. The result for `COCCN[C@@]12c3nc(-c4ccccc4)[nH]c(=O)c3[C@@H](c3ccccc3)[C@]1(c1ccc(OC)cc1)Oc1cc(OC)cc(OC)c12` reads 1.18. For `CC#CCN1C(=O)N(C(C)=O)C(c2ccccc2)C(C(C)=O)=C1C` (stereo not given) the value was 1.2; for `C[C@H]1O[C@H]2C3=C(CCOC3=O)[C@@H]1[C@@H]1C(=O)N(c3ccc(Br)cc3)C(=O)[C@@H]12`, 1.02. On to `Cn1nc(-c2ccc(OC(F)(F)F)cc2)cc1N`, for which the growth came out at 1.15. Consider `COCCNC1=NC(c2cccc(Cl)c2)C(C(=O)OC)=C(C)N1Cc1ccc(C(F)(F)F)cc1` (stereo not given), for which the growth was 1.07. For `Cc1cc(O)c2c(c1)O[C@]1(C(=O)O)C(=C(O)CC[C@H]1O)C2=O` the value was 1.14. With `Nc1cc(-c2ccccc2)nn1C1CCCCC1`, the growth was 0.952. `COC(=O)C/C=C/[C@H](C)[C@@H](NC(=O)[C@H](Cc1ccccc1)NC(=O)OCC1c2ccccc2-c2ccccc21)c1ccccc1`: the growth was determined as 1.21.

On to `CC(C)C1=NCCN(C)C2=C1C(c1ccc(Br)cc1)NC2=O` (stereo not given), for which the growth stood at 0.987. Consider `COc1ccc2c(c1)[C@@]1(OCCC=C[C@H]1C)C(=O)N2Cc1ccc(F)cc1`, for which the growth amounted to 0.987. Regarding `O=C1NC(c2ccc(F)cc2)c2c1nn(-c1ccc(OC(F)(F)F)cc1)c2-c1ccccc1` (stereo not given), the growth was determined as 0.804. For `COC(=O)c1cc2c(c3c4cc(C)ccc4n(S(=O)(=O)c4ccc(OC)cc4)c13)C(=O)N(Cc1ccc(C)cc1)C2` the value was 0.984. For `COC(=O)C1=C(C)Oc2ccccc2[C@@H]1c1ccccc1`, the growth was 0.899.

As for `COc1cc([C@@H]2[C@@H](C(=O)NC3CCCCC3)[C@H](C(=O)NC3CCCCC3)[C@H]2c2cc(OC)c(OC)c(OC)c2)cc(OC)c1OC`, the growth came out at 0.971. The result for `COc1ccc(-c2c(O)c(=O)c3ccccc3n2C)cc1` reads 0.682. Regarding `COC(=O)C1=C(CCl)N(C(C)=O)C(=O)N(C(C)=O)C1c1cccc(C#N)c1` (stereo not given), the growth is 1.46. As for `Cc1ccc(C2NC(=O)C3=C2C(CC(C)C)=NCCN3)cc1` (stereo not given), the growth is 1.06.

As to `COC(=O)C1=C(C)N(Cc2ccc(C(F)(F)F)cc2)C(NCCc2cccs2)=NC1c1ccccc1` (stereo not given), the growth was found to be 0.841.

Regarding `O=C(OC[C@@]1(O)C(=O)[C@H]2C=C[C@@H]1[C@H]1C2C=CC(=O)[C@]1(O)COC(=O)c1ccccc1)c1ccccc1` (stereo not given in full), the growth came out at 0.803. Regarding `C=C(C)C[C@H](O)COc1cc2c(cc1C1(c3cc4c(cc3OC[C@@H](O)CC(=C)C)OCO4)C(=O)Nc3c(F)cccc31)OCO2`, the growth stood at 0.919.

As for `O=C(c1c(O)cc(O)cc1Nc1ccnn1Cc1ccc(C(F)(F)F)cc1)N1Cc2cn[nH]c2C1`, the growth worked out at 0.96. In the case of `Cc1cc(CCCc2ccccc2)nc(CCCc2ccccc2)c1`, the growth was 1.18. For `CC1=NCC(C)(C)NC2=C1C(c1ccc(Br)cc1)N(c1ccccc1)C2=O` (stereo not given) the value was 0.901; for `COC(=O)c1ccc(Oc2cc(Br)cc(OC)c2)o1`, 0.96; for `COC(=O)C1=C(C)NC(=S)NC1c1ccc(Br)cc1` (stereo not given), 1.01.

As to `CN1CCN=C(c2ccccc2)C2=C1C(=O)N(Cc1ccccc1)C2c1ccc(F)cc1` (stereo not given), the growth was 1.04. Take `CCc1ccccc1-n1nc2c(c1-c1ccccc1)C(c1ccc(C)cc1)NC2=O` (stereo not given): the growth is 0.909.

With `COC(=O)C1=C(C)N(Cc2ccc(F)cc2)C(=S)NC1c1ccccc1Cl` (stereo not given), the growth amounted to 0.983.

As to `COc1cc(O)c(C(=O)[C@H]2CC=C(CCC=C(C)C)C[C@@H]2c2ccsc2)c(O)c1`, the growth is 1.08. `COC(=O)[C@@]1(C)CC[C@]2(C)CC[C@]3(C)C(=CC(=O)C4[C@@]5(C)CC[C@H](OS(N)(=O)=O)C(C)(C)[C@@H]5CC[C@]43C)[C@@H]2C1` (stereo not given in full): the growth was 1.05. For `COC(=O)C1=C(C)N(Cc2ccc(Cl)cc2)C(=S)NC1c1cccc(Cl)c1` (stereo not given) the value was 0.944; for `CCCN1C(=S)NC(c2cccc(OC)c2)C(C(=O)OC)=C1C` (stereo not given), 1.02; for `COc1ccc(N2C(=O)C3=C(C(C(C)C)=NCCN3C)C2c2ccc(C)cc2)cc1` (stereo not given), 1.04. As for `CC1=C[C@@H](COCc2ccccc2)O[C@@]2(C1)C(=O)Nc1cccc(Br)c12`, the growth was 0.93.

Consider `COC(=O)CC#C[C@H](C)[C@@H](NS(C)(=O)=O)C1CCCCC1`, for which the growth is 0.931. `C/C=C(\C)C1=C2CCCOC2CCCN1S(=O)(=O)c1ccc([N+](=O)[O-])cc1` (stereo not given): the growth amounted to 1.1. As for `CONC(=O)[C@H]1[C@@H](O)[C@@]2(O)c3c(OC)cc(F)cc3O[C@@]2(c2ccc(Br)cc2)[C@@H]1c1ccccc1`, the growth was found to be 0.97.

Regarding `COC(=O)N[C@@H]1[C@@H](C)[C@H](OC)[C@]23C=CC=C[C@H]2[C@]13CCN1CCCC1`, the growth came to 1.21. As to `CC1(C)CN=C(c2ccccc2)C2=C(N1)C(=O)NC2c1cccc(C(F)(F)F)c1` (stereo not given), the growth is 0.94.

As to `Fc1ccc([C@H]2OC[C@H]3[C@@H]2CO[C@@H]3c2ccc(F)cc2)cc1`, the growth is 1.02. Take `CC(C)(C)CC(=O)Cc1cc(O)cc(O)c1C(=O)N1Cc2ccccc2C1`: the growth was 1.09. In the case of `CC1(C)C(CO)C1COCc1ccccc1` (stereo not given), the growth was 1.17. Regarding `CC(C)Cc1n[nH]c2c1C(c1ccc(F)cc1)N(c1ccccc1)C2=O` (stereo not given), the growth is 0.931. As to `O=C(c1c(O)cc(O)cc1Nc1ccnn1CC1CCCCC1)N1Cc2cccnc2C1`, the growth worked out at 1.03. Regarding `CC(C)CCc1cc(O)c(O)c2oc3cc(O)cc(O)c3c(=O)c12`, the growth was 0.342. As to `CC1(Cc2occc(=O)c2OS(C)(=O)=O)C(c2ccc(F)cc2)=Nc2ccccc21` (stereo not given), the growth came out at 1.07. Consider `O=C(O)c1cccc2cnnn12`, for which the growth stood at 1.64.

As to `C=C(C)[C@@H]1CC[C@]2(COC(C)=O)CC[C@]3(C)[C@H](CC[C@@H]4[C@@](C)(CCC5OCCO5)[C@H](C(=C)C)CC[C@]43C)[C@@H]12`, the growth turned out to be 1.17.

For the compound `O=C(O)/C=C/NC(=O)c1ccccc1`, the growth was 1.2. As to `CC(=O)C1=C(C)N(Cc2ccc(F)cc2)C(=S)NC1c1ccccc1Cl` (stereo not given), the growth stood at 1.11. For `COC(=O)C1=C(C(=O)OC)[C@@H](c2ccccc2)O[C@H]1c1cccs1` the value was 1.17; for `C=CCOC(=O)/C=C/NC(=O)[C@@H]1OC(C)(C)OCC1(C)C`, 0.954; for `C=CCC[C@@H](O)COc1cc2c(cc1C1(c3cc4c(cc3OC[C@H](O)CCC=C)OCO4)C(=O)Nc3c(F)cccc31)OCO2`, 0.863. In the case of `CC(=O)C1=C(C)N(Cc2ccc(F)cc2)C(=S)NC1c1ccc(F)cc1` (stereo not given), the growth was determined as 0.954. Consider `C#C[C@H](C)OC(=O)c1nnc2c3ccccc3n(COC)c2n1`, for which the growth was determined as 1.07. With `C#CCC(C)(C)CNC(=O)CC1(CNC(=O)c2cccc(/C=N/NS(=O)(=O)c3ccc(C)cc3)c2)CCN(S(=O)(=O)c2ccc(C)cc2)CC1`, the growth was determined as 1.13.

Regarding `COc1ccc(Cn2nc(-c3ccoc3)cc2N)cc1`, the growth amounted to 1.08. Consider `N#Cc1ccc(-c2[nH]c3ccccc3c(=O)c2O)cc1`, for which the growth amounted to 0.558. The result for `CC(=O)NCC1CNC(=O)CC2(CCCCC2)CNC(=O)c2cccc(c2)-c2[nH]ncc2CO1` (stereo not given) reads 1.21.
